From paper PMC4336329 (PLoS ONE, 2015)
Out of some 310,000 compounds screened, about 2,200 (0.71%) showed an effect of 50% or more. The effect is printed as a negative number. The list shows a part of the results.

What follows are compounds tested against human ether-à-go-go-related gene (hERG) potassium channel (human, UniProt Q12809) (assay: primary screen, population patch clamp on CHO cells stably expressing hERG).
Sequence of human ether-à-go-go-related gene (hERG) potassium channel (Q12809 whole entry, looked up): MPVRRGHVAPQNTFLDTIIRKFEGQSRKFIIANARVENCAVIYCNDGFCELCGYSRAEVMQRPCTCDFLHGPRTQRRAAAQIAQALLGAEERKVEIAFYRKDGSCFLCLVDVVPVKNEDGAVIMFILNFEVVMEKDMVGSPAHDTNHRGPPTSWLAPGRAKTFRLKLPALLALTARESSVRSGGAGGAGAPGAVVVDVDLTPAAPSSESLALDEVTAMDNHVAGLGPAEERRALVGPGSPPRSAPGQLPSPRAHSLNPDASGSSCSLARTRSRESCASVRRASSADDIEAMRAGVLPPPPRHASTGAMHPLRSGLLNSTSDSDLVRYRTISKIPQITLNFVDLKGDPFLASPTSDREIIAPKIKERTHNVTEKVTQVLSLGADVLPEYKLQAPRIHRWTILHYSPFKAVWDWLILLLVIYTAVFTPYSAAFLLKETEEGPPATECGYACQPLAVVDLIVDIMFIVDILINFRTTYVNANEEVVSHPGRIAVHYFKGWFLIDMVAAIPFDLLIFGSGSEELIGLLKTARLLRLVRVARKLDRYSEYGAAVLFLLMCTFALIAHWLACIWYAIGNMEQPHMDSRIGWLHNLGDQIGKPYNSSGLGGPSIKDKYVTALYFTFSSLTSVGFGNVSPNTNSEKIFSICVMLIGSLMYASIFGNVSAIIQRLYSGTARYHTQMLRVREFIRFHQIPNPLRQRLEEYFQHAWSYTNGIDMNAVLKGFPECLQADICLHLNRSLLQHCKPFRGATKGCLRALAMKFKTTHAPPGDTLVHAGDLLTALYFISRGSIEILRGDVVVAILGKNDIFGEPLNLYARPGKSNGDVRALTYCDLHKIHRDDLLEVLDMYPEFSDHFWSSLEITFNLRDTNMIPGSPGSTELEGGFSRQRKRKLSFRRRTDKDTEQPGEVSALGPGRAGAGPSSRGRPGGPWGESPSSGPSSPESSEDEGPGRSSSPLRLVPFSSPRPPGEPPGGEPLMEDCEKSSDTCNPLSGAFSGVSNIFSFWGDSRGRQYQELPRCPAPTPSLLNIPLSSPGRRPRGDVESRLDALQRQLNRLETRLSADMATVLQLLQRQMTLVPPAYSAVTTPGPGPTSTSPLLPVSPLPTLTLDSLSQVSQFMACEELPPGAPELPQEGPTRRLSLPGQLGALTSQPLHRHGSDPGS

SMILES | hERG current change (%, negative = inhibition) at 1uM [%]
COC(=O)C1=C(c2c(C)noc2C)C[C@@H]2CC[C@H]1N2C(=O)N1CCCCC1 | 11.3
COc1ccc(-n2c(C)c(C)c3c(NCCCN(C)C)ncnc32)cc1 | -7.76
Cc1cc(S(=O)(=O)NCc2cccnc2)ccc1F | 2.2
CCCCn1c(CN2CCN(c3cccc(Cl)c3)CC2)nc2c1c(=O)[nH]c(=O)n2C | 4.1
O=C(NC(c1ccc(Cl)cc1)c1c(O)ccc2ccccc12)c1ccccc1 (centres unmarked) | 5.06
Cc1cccc(C(=O)NCC(=O)N2CC=C(c3ccccc3)CC2)c1 | -1.82
CC(C)N1CCc2c(sc(NC(=O)C3CCCCC3)c2C(N)=O)C1.Cl | -5.83
O=[N+]([O-])c1c(Nc2ccccc2O)cc(Cl)c2nonc12 | 10.3
COc1ccc(N(CC(=O)NC2CCCC2)S(=O)(=O)c2ccc(NC(C)=O)cc2)cc1 | 6.69
O=C(Nc1ccc2c(c1)OCO2)N1CCN(c2ccccc2)CC1 | 6.41
O=C(Nc1cccc(S(=O)(=O)N2CCOCC2)c1)c1cn(-c2ccccc2)nc1-c1ccc(F)cc1 | 2.89
CC(/C=C\c1cccnc1)=C/C(=O)[O-].[Na+] | 7.43
COC(=O)c1c(NC(=O)CSc2ncnc3[nH]ncc23)sc2c1CCC2 | 5.61
CCN(C(=O)c1ccc(S(=O)(=O)N2CCC(C)CC2)cc1)C1CCS(=O)(=O)C1 (centres unmarked) | 8.2
CCN1CC2=C(OC(N)=C(C#N)C2c2cccs2)/C(=C/c2cccs2)C1 (centres unmarked) | 0.408
O=C(NC(Cc1ccccc1)C(=O)O)/C(=C/c1ccccc1)NC(=O)c1ccccc1 (centres unmarked) | 11.7
COc1ccc(NC(=O)C2CCN(c3cc(C)nc(-c4ccccc4)n3)CC2)cc1 | 2.19
CCCN1CC(C)C(OC(C)=O)(c2ccccc2)CC1C.Cl (centres unmarked) | 7.03
Cc1cc(C)nc(CC(N)=O)n1 | -6.16
CCOC(=O)c1nnn(-c2nonc2N)c1CNC(C)C | -15.2
O=C(c1cccnc1)c1cccnc1 | 15.2
Cc1ccnc(NC(=O)c2cccc(OC(F)F)c2)n1 | 13.3
CN(C)S(=O)(=O)N1CCN(S(=O)(=O)c2ccccc2)CC1 | 15.6

SMILES | hERG current change (%, negative = inhibition) at 1uM [%]
COc1cc(CNCc2ccncc2)cc(OC)c1OC.Cl | 17
O=C(c1cc(-c2ccc(Cl)cc2)on1)N1CCN(c2ccccc2)CC1 | 5.65
CCOc1ccccc1NC(=O)C(CC)Sc1nc2ccsc2c(=O)n1CCC(=O)O (centres unmarked) | 12
O=C(CCCOc1ccc(Cl)cc1Cl)NCCCO | -0.891
Cc1ccccc1NS(=O)(=O)c1ccc(Cl)cc1 | 0.133
O=S(=O)(c1ccccc1)N(CC(O)Cn1c2ccccc2c2ccccc21)c1ccccc1 (centres unmarked) | 5.61
CC(C)(C)c1ccc(C(CC(=O)O)NC(=O)CCCc2ccccc2)cc1 (centres unmarked) | 10.4
O=C(N1CCN=C1SCc1cccnc1)C12CC3CC(CC(C3)C1)C2 | 8.54
CCCC(=O)Nc1ccc(NC(=O)c2ccco2)c(OC)c1 | 9.53
O=C(NCCN1CCOCC1)c1cc2sccc2n1Cc1ccc(F)cc1 | -1.57
CN(C(=O)C1CCN(S(=O)(=O)c2ccccc2)CC1)c1c(N)n(Cc2ccccc2)c(=O)[nH]c1=O | 15
CC(Sc1ccc(Cl)cc1)C(=O)NCc1ccc2c(c1)OCO2 (centres unmarked) | 9.26
COc1ccc(C(NC(=O)C(C)C)c2ccc3cccnc3c2O)cc1 (centres unmarked) | 5.67
COc1ccc(N2CC(O)(c3ccc(F)cc3)[N+]3=C2CCCC3)cc1.[Br-] (centres unmarked) | 11.9
COc1ccc(OC)c(NC(=O)COC(=O)/C=C/c2c(C)nn(C3CCS(=O)(=O)C3)c2Cl)c1 (centres unmarked) | 9.74
CC(=O)Nc1ccc(C(=O)OCc2ccc(F)cc2Cl)cc1 | 22.5
CC1CCCC(C)N1C(=O)c1cc(-c2cccs2)on1 (centres unmarked) | 6.03
CSCCC(NC(=O)c1ccccc1)C(=O)NCCCSc1ccccc1 (centres unmarked) | 11.1
O=C(CN1CCN(c2ccccn2)CC1)Nc1cccc(C(F)(F)F)c1 | 3.24
Cc1ccc(NC2=NCCCS2)cc1Cl | 15.1
CC1(C)CC(=O)C=C(NCC2CCCO2)C1 (centres unmarked) | 6.93
O=C(N/C(=C\c1ccco1)C(=O)N1CCCC(CO)C1)c1ccccc1 (centres unmarked) | 15.7
COc1ccccc1N1CCN(C(=O)c2cccc(NC3=NC4CS(=O)(=O)CC4S3)c2)CC1 (centres unmarked) | 8.82

SMILES | hERG current change (%, negative = inhibition) at 1uM [%]
Fc1ccc(Oc2cnc3ccccc3n2)cc1 | 4.24
CCN(CC)CCNC(CC(=O)Nc1ccc(Cl)cc1Cl)C(=O)O (centres unmarked) | 11.8
CC1CC(=O)Nc2cc([N+](=O)[O-])ccc2N1 (centres unmarked) | 6.17
Cc1ccccc1CN1CCN(C(=O)CC(C)C)CC1 | 2.76
COC(=O)[C@@H]1C[C@H]1[C@@H](NP(=O)(c1ccccc1)c1ccccc1)c1ccccc1 | 15.7
COc1ccc([N+](=O)[O-])cc1NC(=O)CSc1ccc2ccccc2c1 | 15.8
CCC(=O)Nc1cc(C)c(NC(=O)C23CC4CC(CC(C4)C2)C3)cn1 | 12.7
COc1ccc(C2NC3=C(CCCC3)C(C#N)(C#N)C2(C#N)C#N)cc1 (centres unmarked) | 15
CC(=O)c1sc(NC(=O)COc2ccc(Cl)cc2Cl)nc1C | 13.3
Cc1ccc(S(=O)(=O)NCc2ccccc2)s1 | 9.96
Cc1ccc(-c2nn(-c3ccccc3)cc2/C=C(\C#N)C(=O)NCc2ccccc2)cc1 | 3.79
COc1ccc(OC)c(NC(=O)NCc2ccc(F)cc2)c1 | 9.09
O=C(CCCOc1ccc(Cl)cc1Cl)Nc1ccccn1 | 12.9
Cn1c(=O)c2ncn(CC(=O)Nc3ccc(N4CCOCC4)cc3)c2n(C)c1=O | 3.73
Cc1cc(NC(=O)c2cccc(S(=O)(=O)Nc3cccc(C(=O)O)c3)c2)no1 | 14.3
COc1cccc(CNc2nc3ccccc3n2CCN2CCCCC2)c1 | -4.52
CCN1C(=O)N(CC)C2NC(=S)NC21 (centres unmarked) | 7.44
COc1ccc(C)cc1NC(=O)CSc1ccc(-c2ccco2)nn1 | 13.4
O=C(CSc1nnc(CNC(=O)c2ccco2)o1)Nc1ccc(OC(F)(F)F)cc1 | -16.1
S=C(NC1CCCCC1)N1CCN(C2CCCCC2)CC1 | 11.1
Cc1cccc(N(CC(=O)NCc2ccco2)C(=O)CNS(=O)(=O)c2ccc(F)cc2)c1 | 22
COc1ccccc1CNC(=S)Nc1ccc2nc(N3CCN(C)CC3)cc(C)c2c1 | 12
COCCCn1c(C(=O)NCCC2=CCCCC2)cc2c(=O)n3ccccc3nc21 | 4.42

SMILES | hERG current change (%, negative = inhibition) at 1uM [%]
CC1=CC2=NC(=O)/C(=C/c3cccn3Cc3ccccc3)C(=N)N2O1 | 2.81
CCC(C)Sc1nnc(CNS(=O)(=O)c2ccc(F)cc2)n1C (centres unmarked) | 12.5
CC1CCN(C(=O)c2[nH]cnc2C(=O)Nc2ccon2)CC1 | 13.3
COc1ccc(N2C(=O)CC(N3CCC(O)(c4ccc(Cl)cc4)CC3)C2=O)cc1 (centres unmarked) | -6.36
c1ccc(OCCCCN2CCOCC2)cc1 | -7.26
Cc1cc(C(=O)COc2ccc3ccc(=O)oc3c2)c(C)n1C | 29.5
CCS(=O)(=O)N1CCN(c2ccc(C(=O)NC3C4CC5CC(C4)CC3C5)cc2[N+](=O)[O-])CC1 (centres unmarked) | 9.48
CS(=O)(=O)N(CC(=O)NCC1CCCO1)c1cc(Cl)c(Cl)cc1Cl (centres unmarked) | 10.7
O=C(O)Cc1c(-c2ccccc2)c2cc(Cl)ccc2[nH]c1=O | 17.6
Cc1cccc(N2C(=O)N3[C@H](c4ccc(Br)cc4)[C@@H]4C(=O)N(C(C)(C)C)C(=O)[C@@H]4[C@]3(C)C2=O)c1 | 9.74
CSCCC(NC(=O)c1ccc(Cl)cc1Cl)C(=O)OC(C)C(=O)NCc1ccco1 (centres unmarked) | 2.93
CCCNC(=S)N1CCN(c2nc(-c3ccc(C)cc3)cs2)CC1 | 10.9
Cc1ccc(NC(=O)CS(=O)CC(=O)Nc2ccccc2-c2ccc(C)o2)cc1 (centres unmarked) | 11.6
CCOc1ccc(S(=O)(=O)N2CCC(C(=O)NCc3ccncc3)CC2)cc1 | -14.5
COc1ccc(/C=N/N2CCN(c3ccccc3OC)CC2)cc1Br | 12
CCOC(=O)C1=C(Nc2ccccc2)CC(C)(O)C(C(=O)OCC)C1c1ccc(Br)cc1 (centres unmarked) | 4.86
CC(=O)Nc1ccc(S(=O)(=O)NC(C)C(=O)OCCOc2ccc(F)cc2)cc1 (centres unmarked) | -1.55
CCCS(=O)(=O)N1CCN(C2CCC(C)CC2)CC1.O=C(O)C(=O)O (centres unmarked) | 11
CCCCCCCOC(=O)C1=C(C)Nc2ncnn2C1c1cccs1 (centres unmarked) | 17.2
COc1ccc(C)cc1NC(=O)C(NCC(O)c1ccccc1)c1ccccc1.O=C(O)C(=O)O (centres unmarked) | 6.42
